Our source for the growth yield values is the supplement of paper PMC8007513.

Structures are written as SMILES. Structures can show the parent of a compound that is named as a salt. ± gives the standard error. About 75 (6%) of roughly 1,300 compounds showed an effect of 50% or more. Some of the results follow.

This assay relates to Trichoderma virens ATCC 9645. Nature of the assay: growth yield (OD600) relative to untreated control; higher = less growth inhibition. The conditions noted are these: compound concentration: 100 uM. In outline:
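Spores of Trichoderma virens ATCC 9645, taken from potato dextrose agar plates grown for 7 days, were suspended at 15,000 spores ml^−1 in potato dextrose broth. In 96-well plates, 100 μl aliquots held library compounds at 100 μM final, either alone or together with a biocide at 200 ng ml^−1, and were grown at 30 °C. A BioTek EL800 read OD600 at 40 h and 72 h. Growth values are given relative to the control lacking both agents and are means of duplicate screens.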

Consider `C#C[C@]1(O)CC[C@H]2[C@@H]3CCC4=C(CCC(=O)C4)[C@H]3CC[C@@]21C` [Norethynodrel], for which the growth yield by setting is: (40 h) 72.9 ± 2.7%; (72 h) 79.92 ± 0.63%.
The like results for `CC(C)(C)NCC(O)c1cc(O)cc(O)c1` (stereo unspecified) [Terbutaline hemisulfate] were, in that order, 97.7 ± 1.1% and 99.42 ± 0.42%.
On to `NS(=O)(=O)c1cc2c(cc1Cl)NC(CC1CCCC1)NS2(=O)=O` (stereo unspecified) [Cyclopenthiazide], for which the growth yield by setting is: (40 h) 100 ± 1.9%; (72 h) 106 ± 4.2%.
`CC[N+](CC)(CC)CCOc1cccc(OCC[N+](CC)(CC)CC)c1OCC[N+](CC)(CC)CC` [Gallamine triethiodide]: the growth yield (40 h) worked out at 99.6 ± 1.1% and the growth yield (72 h) stood at 100.6 ± 0.52%.
The like results for `CCOC(=O)[N-]c1c[n+](N2CCOCC2)no1` [Molsidomine] were, in that order, 102 ± 2.1% and 104 ± 1.4%.
For `CN[C@@H]1[C@H](O[C@H]2[C@H](O[C@H]3[C@H](O)[C@@H](O)[C@H](NC(=N)N)[C@@H](O)[C@@H]3NC(=N)N)O[C@@H](C)[C@]2(O)CO)O[C@@H](CO)[C@H](O)[C@H]1O` [Dihydrostreptomycin sulfate] the same measures were 96.9% and 98%.
For `NCc1ccc(S(N)(=O)=O)cc1` [Mafenide hydrochloride] the same measures were 107 ± 2.5% and 111 ± 4.2%.
Consider `CCc1oc2ccccc2c1C(=O)c1cc(Br)c(O)c(Br)c1` [Benzbromarone], for which the growth yield is, setting by setting: (40 h) 40.7 ± 5.7%; (72 h) 77.8 ± 4.8%.
The like results for `CC/C(=C(\c1ccccc1)c1ccc(OCCN(C)C)cc1)c1ccccc1` [Tamoxifen citrate] were, in that order, 1.11 ± 0.48% and 1.26 ± 0.21%.
For `CCCCC[C@H](O)/C=C/[C@H]1[C@H](O)CC(=O)[C@@H]1CCCCCCC(=O)O` [Alprostadil] the same measures were 107 ± 8.4% and 101 ± 6.2%.
For `CCN1CCC[C@H]1CNC(=O)c1c(O)c(Cl)cc(Cl)c1OC` [Raclopride] the same measures were 94.7% and 94.6%.
For the compound `CC[C@@H]([C@H](C)O)n1ncn(-c2ccc(N3CCN(c4ccc(OC[C@@H]5CO[C@@](Cn6cncn6)(c6ccc(F)cc6F)C5)cc4)CC3)cc2)c1=O` [Posaconazole], the growth yield is, setting by setting: (40 h) 8.9 ± 8.9%; (72 h) 5.77 ± 5.6%.
The like results for `CN1CCC[C@@H]1CCO[C@](C)(c1ccccc1)c1ccc(Cl)cc1` [Clemastine fumarate] were, in that order, 83.71 ± 0.16% and 97.43 ± 0.1%.
The like results for `CCOc1ccc(NC(C)=O)cc1` [Phenacetin] were, in that order, 99.1 ± 4.1% and 100 ± 5.9%.
`CC(C(=O)O)c1ccc(C(=O)c2cccs2)cc1` (stereo unspecified) [Suprofen] gave a growth yield (40 h) of 91.2 ± 3.2% and a growth yield (72 h) of 87.6 ± 3.7%.
For `COc1cc2ncnc(Nc3ccc(F)c(Cl)c3)c2cc1OCCCN1CCOCC1` [Gefitinib] the same measures were 7.47 ± 0.16% and 6.29%.
The like results for `COc1ccc(C(=O)c2ccccc2O)c(O)c1` [Dioxybenzone] were, in that order, 22.2% and 45.1 ± 2.7%.
The like results for `CC(C)(C)NC[C@H](O)COc1ccccc1C1CCCC1` [Penbutolol sulfate] were, in that order, 109 ± 6.2% and 110 ± 5.1%.
Turning to `Nc1nc2[nH]cc(CCc3ccc(C(=O)N[C@@H](CCC(=O)O)C(=O)O)cc3)c2c(=O)[nH]1` [Pemetrexed disodium], the growth yield reads like this: (40 h) 96.9 ± 1.6%; (72 h) 90.9 ± 5.3%.
The like results for `COc1ccc(CN2CCN(C(c3ccc(F)cc3)c3ccc(F)cc3)CC2)c(OC)c1OC` [Lomerizine hydrochloride] were, in that order, 97.2 ± 4.1% and 107 ± 3.1%.
For `Cc1cnc(C(=O)O)c[n+]1[O-]` [Acipimox] the same measures were 102 ± 2.4% and 102 ± 3.2%.
In the case of `O=C(O)[C@H]1/C(=C/CO)O[C@@H]2CC(=O)N21` [Clavulanate potassium salt], the growth yield by setting is: (40 h) 95.5 ± 2.4%; (72 h) 87.9 ± 3.4%.
The like results for `O=C(OCCOCCO)c1ccccc1Nc1cccc(C(F)(F)F)c1` [Etofenamate] were, in that order, 73.2 ± 7.8% and 100 ± 6.1%.
As to `CN1CCOC(c2ccccc2)c2ccccc2C1` (stereo unspecified) [Nefopam hydrochloride], the growth yield (40 h) amounted to 103 ± 3.5% and the growth yield (72 h) came out at 103 ± 2.4%.
As to `CN1CCC(=C2c3ccccc3CCc3sccc32)CC1` [Pizotifen malate], the growth yield runs as follows: (40 h) 103 ± 1.8%; (72 h) 106.2 ± 0.52%.
For `CCN(CC)CCOc1ccc(C(=C(Cl)c2ccccc2)c2ccccc2)cc1` [Clomiphene citrate (Z,E)] the same measures were 1.75 ± 1.1% and 2.2 ± 0.1%.
For `CN(C)[C@@H]1C(O)=C(C(=O)NCNCCCC[C@H](N)C(=O)O)C(=O)[C@@]2(O)C(O)=C3C(=O)c4c(O)cccc4[C@@](C)(O)[C@H]3C[C@@H]12` [Lymecycline] the same measures were 82.1 ± 2.7% and 73.83 ± 0.63%.
The like results for `CCCCNc1ccc(C(=O)OCCN(C)C)cc1` were, in that order, 99.752 ± 2.2e-14% and 102 ± 3.4%.
On to `CCCCCOC(=O)Nc1nc(=O)n([C@@H]2O[C@H](C)[C@@H](O)[C@H]2O)cc1F` [Capecitabine], for which the growth yield (40 h) was found to be 105.2 ± 0.64% and the growth yield (72 h) amounted to 103.2 ± 0.84%.
On to `CCC1NC(=O)c2cc(S(N)(=O)=O)c(Cl)cc2N1` (stereo unspecified) [Quinethazone], for which the growth yield came out at 114 ± 1.4% (40 h) and 107 ± 1.1% (72 h).
The like results for `Cc1cnc(C(=O)NCCc2ccc(S(=O)(=O)NC(=O)NC3CCCCC3)cc2)cn1` [Glipizide] were, in that order, 103.7 ± 0.48% and 104.3 ± 0.52%.
The like results for `O=C1[C@H](CC[C@H](O)c2ccc(F)cc2)[C@@H](c2ccc(O)cc2)N1c1ccc(F)cc1` [Ezetimibe] were, in that order, 96.6 ± 8.6% and 98.8 ± 6.3%.
For `COC(=O)C1=C(C)NC(C)=C(C(=O)OCCN(C)Cc2ccccc2)C1c1cccc([N+](=O)[O-])c1` (stereo unspecified) [Nicardipine hydrochloride] the same measures were 89.4 ± 5.2% and 114 ± 7.8%.
